Assay results from a collection of fitness landscapes (doi:10.1016/j.celrep.2020.107928).
In all, about 81,000 sequences were measured (“one-hybrid fitness for binding NBS DNA”: median about -0.1, highest 2% from about 0.36 on). This is one part of the list.

B1: Caulobacter ParB omega fusion; a variant is named by its letters at X, in order, B8GW30 (parent)
chain: MESVVVGEPGMSEGRRGLGRGLSALLGEVDAAPAQAPGEQLGGSREAPIEILQRNPDQPRRTFREEDLEDLSNSIREKGVLQPILVRPSPDTAGEYQIVAGERAWRAAQRAGLKTVPIMVRELDDLAVLEIGIIENVQRADLNVLEEALSYKVLMEKFERTQENIAQTIGKSXSHVANXMRLLXLPDEVQSYLVSGELTAXHARAIAAAADPVALAKQIIEGGLSVRETEALARKAPNLSAGKSKGGRPPRVKDTDTQALESDLSSVLGLDVSIDHRGSTGTLTITYATLEQLDDLCNRLTRGI

Variants of: B1
Assay: one-hybrid fitness for binding NBS DNA (the Noc-binding site; scaled: cognate 1, non-cognate 0); higher = stronger binding
Details: with NBS DNA site
Summary of the method: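 Fitness here means the log change in variant-to-wild-type read ratio between plasmids sequenced before and after selection. That scale was set so cognate equals 1 and non-cognate equals 0. The selection was a bacterial one-hybrid screen of Caulobacter ParB libraries, four specificity codons randomised, in E. coli USO carrying a HIS3 reporter with the site 19 bp from the promoter, grown 48 hours at 37°C on M9-minus-histidine with 0.1 mM IPTG and 5 mM 3-AT.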

Variant | one-hybrid fitness for binding NBS DNA
PNSA | ≤ 0.2
KRYF | ≤ 0.2
GTYR | ≤ 0.2
RIIY | ≤ 0.2
VPNC | ≤ 0.2
LMGD | ≤ 0.2
QLVD | ≤ 0.2
QKKP | 0.26
LLEV | ≤ 0.2
MRKK | ≤ 0.2
HRGM | ≤ 0.2
PRDA | ≤ 0.2
PKAM | ≤ 0.2
NECC | ≤ 0.2
QPKI | ≤ 0.2
QSPD | ≤ 0.2
PRVN | ≤ 0.2
CSPT | ≤ 0.2
SQQC | ≤ 0.2
IVAD | ≤ 0.2
LPEV | ≤ 0.2
DANS | ≤ 0.2
HSEG | ≤ 0.2
HRPY | ≤ 0.2

Variant | one-hybrid fitness for binding NBS DNA
MTKS | ≤ 0.2
HDTP | ≤ 0.2
VHNG | ≤ 0.2
SLMQ | ≤ 0.2
NRKN | ≤ 0.2
QMLD | ≤ 0.2
SREV | ≤ 0.2
MMAV | ≤ 0.2
DGGT | ≤ 0.2
EHLY | ≤ 0.2
DATW | ≤ 0.2
DAIN | ≤ 0.2
FWSS | ≤ 0.2
YVKV | ≤ 0.2
PLRA | ≤ 0.2
DRFG | ≤ 0.2
WQFR | ≤ 0.2
KKVN | ≤ 0.2
NLEW | ≤ 0.2
IHLY | ≤ 0.2
RTAY | ≤ 0.2
MWNT | ≤ 0.2
QGDR | ≤ 0.2
HHLD | ≤ 0.2

Variant | one-hybrid fitness for binding NBS DNA
ALPV | ≤ 0.2
QEGS | ≤ 0.2
AKQW | ≤ 0.2
DATV | ≤ 0.2
VHVG | ≤ 0.2
LKAE | ≤ 0.2
LIKL | ≤ 0.2
ADWS | ≤ 0.2
IFLM | ≤ 0.2
ALGV | ≤ 0.2
GMPE | ≤ 0.2
CNKT | ≤ 0.2
CYRC | ≤ 0.2
QDIR | ≤ 0.2
SSAT | ≤ 0.2
WHKT | ≤ 0.2
QQVY | ≤ 0.2
QVYM | ≤ 0.2
GVRR | 0.213
LSRI | ≤ 0.2
AILT | ≤ 0.2
TLCC | ≤ 0.2
DEPS | ≤ 0.2
DLNV | ≤ 0.2

Variant | one-hybrid fitness for binding NBS DNA
KWWR | ≤ 0.2
LEAC | ≤ 0.2
THGI | ≤ 0.2
CYWL | ≤ 0.2
HWYM | ≤ 0.2
HVIC | ≤ 0.2
VAWS | ≤ 0.2
PSER | ≤ 0.2
LVPD | ≤ 0.2
QAMF | ≤ 0.2
KRGC | ≤ 0.2
LPRF | ≤ 0.2
ILSR | ≤ 0.2
FGHC | ≤ 0.2
QQNM | 0.206
DTMQ | ≤ 0.2
KKHT | 0.274
RYNF | ≤ 0.2
MEPC | ≤ 0.2
PQCT | ≤ 0.2
YHHA | ≤ 0.2
IQGS | ≤ 0.2
DPMA | ≤ 0.2
WMTC | ≤ 0.2

Variant | one-hybrid fitness for binding NBS DNA
SGCG | ≤ 0.2
QDSN | ≤ 0.2
TWLA | ≤ 0.2
MRLP | ≤ 0.2
ADDH | ≤ 0.2
LDPA | ≤ 0.2
VWTL | ≤ 0.2
EWKR | ≤ 0.2
NDCA | ≤ 0.2
KMVT | ≤ 0.2
TITP | ≤ 0.2
QTIQ | ≤ 0.2
CIFR | ≤ 0.2
TEIG | ≤ 0.2
IGSW | ≤ 0.2
VYER | ≤ 0.2
HAAC | ≤ 0.2
FQSI | ≤ 0.2
QIRR | 0.867
LFET | ≤ 0.2
KPDI | ≤ 0.2
TCTP | ≤ 0.2
RIQR | 0.38
DHDY | ≤ 0.2

Variant | one-hybrid fitness for binding NBS DNA
EFRS | ≤ 0.2
RAVS | 0.239
QNVT | ≤ 0.2
GDSK | ≤ 0.2
AGSD | ≤ 0.2
SFIT | ≤ 0.2
PWCC | ≤ 0.2
WSKF | ≤ 0.2
MCPS | ≤ 0.2
RNYE | ≤ 0.2
LAPP | ≤ 0.2
DVPK | ≤ 0.2
FSMS | ≤ 0.2
AKYW | ≤ 0.2
PQHT | ≤ 0.2
YADF | ≤ 0.2
FCNR | ≤ 0.2
MWWG | ≤ 0.2
SCTD | ≤ 0.2
RRFL | ≤ 0.2
PYLW | ≤ 0.2
TAIG | ≤ 0.2
AEKM | ≤ 0.2
RWPK | ≤ 0.2

Variant | one-hybrid fitness for binding NBS DNA
TYRL | ≤ 0.2
WRVT | ≤ 0.2
CQPR | ≤ 0.2
ADPW | ≤ 0.2
CPLK | ≤ 0.2
LVAN | ≤ 0.2
WPVN | ≤ 0.2
RPAG | ≤ 0.2
PMDS | ≤ 0.2
LCGL | ≤ 0.2
NRHA | ≤ 0.2
QPKV | ≤ 0.2
YLVN | ≤ 0.2
NSTE | ≤ 0.2
VDRR | ≤ 0.2
RKRC | 0.4
IRTF | ≤ 0.2
MCKC | ≤ 0.2
KCMV | ≤ 0.2
GELL | ≤ 0.2
KVGL | ≤ 0.2
RHQI | ≤ 0.2
LGQS | ≤ 0.2
VFDC | ≤ 0.2

Variant | one-hybrid fitness for binding NBS DNA
DVMG | ≤ 0.2
HMDV | ≤ 0.2
QWHR | 0.288
QKQF | ≤ 0.2
NHKE | ≤ 0.2
HNSI | ≤ 0.2
PSDS | ≤ 0.2
AFYV | ≤ 0.2
PLNH | ≤ 0.2
IYAI | ≤ 0.2
AVDT | ≤ 0.2
AGTL | ≤ 0.2
TYSS | ≤ 0.2
EGKF | ≤ 0.2
NKKV | ≤ 0.2
KSRY | ≤ 0.2
KRHA | 0.357
ANPT | ≤ 0.2
GWTV | ≤ 0.2
PGIL | ≤ 0.2
MTPG | ≤ 0.2
LVLY | ≤ 0.2
IWRG | ≤ 0.2
PNYN | ≤ 0.2

Variant | one-hybrid fitness for binding NBS DNA
WCWR | ≤ 0.2
HFVR | ≤ 0.2
RVEI | ≤ 0.2
RTVL | ≤ 0.2
TTSR | ≤ 0.2
QGYT | ≤ 0.2
PWVQ | ≤ 0.2
DKLT | ≤ 0.2
SDFT | ≤ 0.2
KYCS | ≤ 0.2
ENIS | ≤ 0.2
DRKV | ≤ 0.2
QIQV | ≤ 0.2
MINC | ≤ 0.2
LCHY | ≤ 0.2
AGRR | ≤ 0.2
QRDV | ≤ 0.2
AWVV | ≤ 0.2
ILGI | ≤ 0.2
LCLS | ≤ 0.2
PKNP | ≤ 0.2
VRVL | ≤ 0.2
SLWY | ≤ 0.2
QRHF | 0.347

Variant | one-hybrid fitness for binding NBS DNA
RAQV | ≤ 0.2
MQVF | ≤ 0.2
AIAP | ≤ 0.2
KEER | ≤ 0.2
IHDF | ≤ 0.2
RMHE | ≤ 0.2
PETC | ≤ 0.2
HVDL | ≤ 0.2
YLMY | ≤ 0.2
SALS | ≤ 0.2
GPLG | ≤ 0.2
WAVC | ≤ 0.2
SRAV | ≤ 0.2
SGTC | ≤ 0.2
QIET | ≤ 0.2
ITGW | ≤ 0.2
LGLL | ≤ 0.2
PWSC | ≤ 0.2
PQPH | ≤ 0.2
IGYM | ≤ 0.2
RKIY | ≤ 0.2
CVSE | ≤ 0.2
WINS | ≤ 0.2
TCST | ≤ 0.2

Variant | one-hybrid fitness for binding NBS DNA
RAPM | ≤ 0.2
VTWG | ≤ 0.2
IFNR | ≤ 0.2
QDWL | ≤ 0.2
AGLF | ≤ 0.2
LRCA | ≤ 0.2
FLSS | ≤ 0.2
WTRF | ≤ 0.2
ENNL | ≤ 0.2
RNCC | ≤ 0.2
LNCT | ≤ 0.2
SPCR | ≤ 0.2
INTC | ≤ 0.2
MAMF | ≤ 0.2
TAMR | ≤ 0.2
TLDT | ≤ 0.2
HCVL | ≤ 0.2
EMQM | ≤ 0.2
PHCM | ≤ 0.2
ISAH | ≤ 0.2
RWTQ | ≤ 0.2
LPGR | ≤ 0.2
GLRM | ≤ 0.2
QDQR | ≤ 0.2

Variant | one-hybrid fitness for binding NBS DNA
LWED | ≤ 0.2
LAAD | ≤ 0.2
LLTF | ≤ 0.2
AVMI | ≤ 0.2
QHNR | 0.618
NYWW | ≤ 0.2
HSQR | ≤ 0.2
CARC | ≤ 0.2
SSQY | ≤ 0.2
EKPC | ≤ 0.2
WCSN | ≤ 0.2
CWPD | ≤ 0.2
SRKL | ≤ 0.2
QQIM | ≤ 0.2
NHCT | ≤ 0.2
QHHC | ≤ 0.2
GQLS | ≤ 0.2
HHLV | ≤ 0.2
GGDC | ≤ 0.2
SYCR | ≤ 0.2
RFCG | ≤ 0.2
EEQS | ≤ 0.2
DLNC | ≤ 0.2
FDDR | ≤ 0.2

Variant | one-hybrid fitness for binding NBS DNA
FATS | ≤ 0.2
TSAT | ≤ 0.2
KSTW | ≤ 0.2
RIDY | ≤ 0.2
IKAI | ≤ 0.2
FETL | ≤ 0.2
HMRR | ≤ 0.2
NCSK | ≤ 0.2
LPFR | ≤ 0.2
RDMD | ≤ 0.2
KRHG | ≤ 0.2
SFRY | ≤ 0.2
QPLR | ≤ 0.2
RIWR | 0.367
CQNR | ≤ 0.2
CECG | ≤ 0.2
QIRY | 0.378
THVQ | ≤ 0.2
